Values belong to the compound of their own block, whether it stands above or below them. Numbered stars: 1 amine (or outer) side, 2 acyl side, 3 side chain; on linkers, the order of the positions; unused ones are H or OH. Square brackets hold non-standard residues; d marks the D form. Peptide text beside a SMILES is read from it. X1 = N=C(NCCC[C@H](N[*:1])C(=O)[*:2])NCCC[C@H]1O[C@@H](n2cnc3c(N)ncnc32)[C@H](O)[C@@H]1O
Legend:
[1] = Inhibition of PRMT3 (unknown origin) using histone H4 substrate in presence of 3H-SAM by Topcount scintillation counting method; parameters: species or system Homo sapiens
[2] = target: T1, Protein arginine N-methyltransferase 5 (Homo sapiens, UniProt O14744); assay: Inhibition of PRMT5 (unknown origin)
[3] = target: T1, Protein arginine N-methyltransferase 5; assay: Inhibition of human PRMT5 (unknown origin)
[4] = Inhibition of cell growth in mouse Th1 cells; type: functional, cell-based
[5] = Inhibition of cell growth in mouse Th2 cells; type: functional, cell-based
PRMT5/MEP50 complex = PRMT5/MEP50 complex (Homo sapiens, UniProt O14744); assay: Inhibition of PRMT5/MEP50 (unknown origin) using H4 peptide as substrate incubated for 25 mins in presence of [3H]-SAM by liquid scintillation counter method; type: protein-complex assay
[6] = target: T2, Histone-arginine methyltransferase CARM1 (Homo sapiens, UniProt Q86X55); assay: Inhibition of PRMT4 (unknown origin)
T2 sequence (Q86X55 whole entry): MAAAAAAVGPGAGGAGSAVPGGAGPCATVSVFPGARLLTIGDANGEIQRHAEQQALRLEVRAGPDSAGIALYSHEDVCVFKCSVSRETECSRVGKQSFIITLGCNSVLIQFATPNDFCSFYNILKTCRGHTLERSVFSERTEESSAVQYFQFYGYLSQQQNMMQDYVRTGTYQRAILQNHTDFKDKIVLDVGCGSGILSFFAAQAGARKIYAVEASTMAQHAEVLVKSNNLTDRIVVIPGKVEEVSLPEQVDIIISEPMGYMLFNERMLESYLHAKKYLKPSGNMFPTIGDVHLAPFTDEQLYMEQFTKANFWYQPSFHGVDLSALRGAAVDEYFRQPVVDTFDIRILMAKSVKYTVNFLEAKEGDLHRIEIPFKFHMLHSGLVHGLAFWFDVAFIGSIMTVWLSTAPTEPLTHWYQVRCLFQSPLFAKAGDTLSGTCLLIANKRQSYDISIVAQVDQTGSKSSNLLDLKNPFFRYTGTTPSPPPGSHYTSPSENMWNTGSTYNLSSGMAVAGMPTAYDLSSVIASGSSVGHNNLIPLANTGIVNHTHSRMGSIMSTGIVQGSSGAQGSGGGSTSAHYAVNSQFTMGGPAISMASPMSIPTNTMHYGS

[7] = target: T3, Protein arginine N-methyltransferase 1 (Homo sapiens, UniProt Q99873); assay: Inhibition of human PRMT1
[8] = target: T2, Histone-arginine methyltransferase CARM1; assay: Inhibition of flag-tagged PRMT4 (2 to 585 residues) (unknown origin) expressed in HEK293F cells preincubated for 30 mins followed by biotinylated substrate and SAM addition by Topcount reader assay; type: cell-based
[9] = target: T4, Protein arginine N-methyltransferase 7 (Homo sapiens, UniProt Q9NVM4); assay: Inhibition of PRMT7 (unknown origin)
T4 sequence (Q9NVM4 whole entry): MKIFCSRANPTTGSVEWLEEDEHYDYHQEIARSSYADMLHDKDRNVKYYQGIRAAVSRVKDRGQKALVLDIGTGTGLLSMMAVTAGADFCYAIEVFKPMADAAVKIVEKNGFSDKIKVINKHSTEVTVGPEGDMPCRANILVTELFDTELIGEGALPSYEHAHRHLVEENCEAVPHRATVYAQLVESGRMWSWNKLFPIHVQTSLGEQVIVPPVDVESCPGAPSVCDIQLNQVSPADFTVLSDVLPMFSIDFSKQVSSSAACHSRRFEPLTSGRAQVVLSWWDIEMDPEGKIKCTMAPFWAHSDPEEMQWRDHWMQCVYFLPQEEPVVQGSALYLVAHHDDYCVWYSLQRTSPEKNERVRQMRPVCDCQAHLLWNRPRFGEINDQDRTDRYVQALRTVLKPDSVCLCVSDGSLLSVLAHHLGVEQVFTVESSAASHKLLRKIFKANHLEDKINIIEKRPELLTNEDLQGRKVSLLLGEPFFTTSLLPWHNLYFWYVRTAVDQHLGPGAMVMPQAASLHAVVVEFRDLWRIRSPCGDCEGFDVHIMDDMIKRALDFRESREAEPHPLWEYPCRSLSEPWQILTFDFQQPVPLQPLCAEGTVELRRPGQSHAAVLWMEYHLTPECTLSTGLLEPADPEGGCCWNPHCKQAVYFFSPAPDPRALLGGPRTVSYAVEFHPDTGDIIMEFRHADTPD

[10] = target: T5, Protein arginine N-methyltransferase 9 (Homo sapiens, UniProt Q6P2P2); assay: Inhibition of PRMT9 (unknown origin)
T5 sequence (Q6P2P2 whole entry): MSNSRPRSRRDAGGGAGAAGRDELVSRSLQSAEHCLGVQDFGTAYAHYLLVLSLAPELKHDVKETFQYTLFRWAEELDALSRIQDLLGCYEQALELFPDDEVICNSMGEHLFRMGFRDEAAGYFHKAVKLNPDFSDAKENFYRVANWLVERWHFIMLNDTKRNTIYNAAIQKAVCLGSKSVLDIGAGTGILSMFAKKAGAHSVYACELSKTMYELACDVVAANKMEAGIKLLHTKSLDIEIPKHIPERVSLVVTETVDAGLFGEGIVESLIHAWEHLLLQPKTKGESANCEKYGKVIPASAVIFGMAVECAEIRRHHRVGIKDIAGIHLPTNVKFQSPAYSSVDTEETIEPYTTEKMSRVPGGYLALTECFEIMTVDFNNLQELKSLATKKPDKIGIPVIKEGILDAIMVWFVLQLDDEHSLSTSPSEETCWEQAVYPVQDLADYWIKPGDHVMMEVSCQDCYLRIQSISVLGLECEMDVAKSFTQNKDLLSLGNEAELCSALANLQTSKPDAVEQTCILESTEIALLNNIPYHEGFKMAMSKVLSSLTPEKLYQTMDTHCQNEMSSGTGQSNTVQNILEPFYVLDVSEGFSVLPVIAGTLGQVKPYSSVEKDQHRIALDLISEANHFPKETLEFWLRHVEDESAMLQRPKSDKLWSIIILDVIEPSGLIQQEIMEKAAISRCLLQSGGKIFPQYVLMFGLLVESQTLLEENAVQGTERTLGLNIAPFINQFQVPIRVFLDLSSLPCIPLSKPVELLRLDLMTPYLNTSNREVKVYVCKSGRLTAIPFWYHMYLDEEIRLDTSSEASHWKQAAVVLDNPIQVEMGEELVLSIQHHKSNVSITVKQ

[11] = target: T5, Protein arginine N-methyltransferase 9; assay: Inhibition of PRMT9 methylation (unknown origin) by in-cell Western blot analysis
[12] = target: T1, Protein arginine N-methyltransferase 5; assay: Inhibition of PRMT5 methylation (unknown origin) by in-cell Western blot analysis
[13] = target: T1, Protein arginine N-methyltransferase 5; assay: Inhibition of full-length PRMT5 (unknown origin) expressed in insect cells coexpressing 6His-tagged MEP50 using histone H4 peptide as substrate incubated for 4 hrs by fluorescence polarization assay; parameters: species or system Insect cell
[14] = target: T3, Protein arginine N-methyltransferase 1; assay: Inhibition of PRMT1 (unknown origin) using histone substrate in presence of SAM by luminescence based microplate reader assay
[15] = target: Protein arginine N-methyltransferase 3 (Homo sapiens, UniProt O60678); assay: Inhibition of PRMT3 (unknown origin)
[16] = Cmax in mouse at 1 mg/kg, po; type: ADME, organism-based; settings: in vivo
[17] = AUC(0 to t) in mouse at 1 mg/kg, po; type: ADME, organism-based; settings: in vivo
[18] = Oral bioavailability in mouse at 1 mg/kg; type: ADME, organism-based; settings: in vivo
[19] = target: T4, Protein arginine N-methyltransferase 7; assay: Inhibition of full-length PRMT7 (unknown origin) expressed in Sf9 cells using biotinylated H2B as substrate incubated for 60 mins in presence of 3H-SAM by Topcount plate reader analysis
[20] = target: T4, Protein arginine N-methyltransferase 7; assay: Inhibition of PRMT7 (unknown origin) assessed as reduction in HSPA8 methylation
[21] = Inhibition of type I PRMTs (unknown origin); parameters: species or system Homo sapiens

Sequence of UniProt O60678 (O60678 whole entry): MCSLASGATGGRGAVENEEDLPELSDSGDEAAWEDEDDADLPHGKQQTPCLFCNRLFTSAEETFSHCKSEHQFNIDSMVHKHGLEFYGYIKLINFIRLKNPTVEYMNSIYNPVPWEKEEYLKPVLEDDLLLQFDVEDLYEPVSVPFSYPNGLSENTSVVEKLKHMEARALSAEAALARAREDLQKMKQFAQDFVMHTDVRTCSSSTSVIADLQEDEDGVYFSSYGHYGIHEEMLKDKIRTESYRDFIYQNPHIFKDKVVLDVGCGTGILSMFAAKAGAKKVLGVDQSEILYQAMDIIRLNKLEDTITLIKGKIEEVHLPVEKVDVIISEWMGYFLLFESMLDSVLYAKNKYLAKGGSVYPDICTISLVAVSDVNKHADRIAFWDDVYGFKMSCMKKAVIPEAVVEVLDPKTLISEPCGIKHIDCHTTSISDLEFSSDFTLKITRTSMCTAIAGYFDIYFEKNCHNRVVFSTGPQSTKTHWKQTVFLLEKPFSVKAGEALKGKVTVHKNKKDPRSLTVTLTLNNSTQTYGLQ
T3 sequence (Q99873 whole entry, the tested form may be a part): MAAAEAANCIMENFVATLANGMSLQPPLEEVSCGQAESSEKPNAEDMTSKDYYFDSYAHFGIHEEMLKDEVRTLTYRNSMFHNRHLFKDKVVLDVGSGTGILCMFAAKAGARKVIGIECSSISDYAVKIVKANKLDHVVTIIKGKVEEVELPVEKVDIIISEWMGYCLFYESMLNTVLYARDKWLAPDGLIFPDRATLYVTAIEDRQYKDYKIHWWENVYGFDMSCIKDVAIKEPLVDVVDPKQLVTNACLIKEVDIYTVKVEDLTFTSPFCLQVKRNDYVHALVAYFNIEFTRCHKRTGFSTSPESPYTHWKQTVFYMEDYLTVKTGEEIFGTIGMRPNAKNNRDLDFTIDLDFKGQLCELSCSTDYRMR

SMILES: O=C(NCC(=O)N1CCCC1)Nc1ccc2cnccc2c1
IC50 [1]: 0.03 µM

SMILES: COc1ccc2[nH]c(SCC(=O)Nc3ccccc3C(C)=O)nc2c1
IC50 [2]: 0.33 µM

SMILES: CCn1c2ccc(Br)cc2c2cc(CNCc3ccccc3OC)ccc21
IC50 [4]: 1.1 µM
IC50 [5]: 4 µM

SMILES: CNC[C@H](O)CN1CCc2c(cccc2OCc2ccc(-c3nccs3)cc2)C1
IC50 [6]: 0.021 µM

SMILES: CNC(=N)NCCCNC(=O)Nc1ccc2cc(C(=O)OC)cc(O)c2c1
IC50 [7]: 0.2 µM

SMILES: CNC[C@@H](O)COc1ccc(Cl)c(-c2nc(-c3c(C)noc3C)c(C)c(N3Cc4cnc(N5CCC5)nc4C3)n2)c1
IC50 [8]: 0.003 µM

SMILES: Cc1cc(N)c2cc(Nc3nc(-c4ccc5c(c4)OCCO5)ncc3F)ccc2c1
IC50 [9]: 2.5 µM

SMILES: CNCCN(C)Cc1ccccc1OCc1cccc(Cl)c1Cl
IC50 [6]: 0.018 µM

SMILES: CCOc1cnc(CC2CCN(C(C)=O)CC2)cc1C(=O)NC[C@@H](O)[C@@H]1CC2CCCCC2CN1 (some centres not stated)
IC50 [13]: 0.202 µM

SMILES: CC(C)c1cc(O[C@H]2C[C@@H](n3ccc4cncnc43)[C@H](O)[C@@H]2O)c2c(c1F)CCN2
IC50 [2]: 0.0011 µM

SMILES: Cc1cc(N)c2cc(Nc3nc(-c4cc5ccccc5o4)ncc3F)ccc2c1
IC50 [9]: 2.4 µM

SMILES: CN(CCN)Cc1ccccc1OCc1ccc(Cl)cc1Cl
IC50 [15]: < 10 µM

SMILES: CC(=O)N1CCC(Nc2cc(C(=O)NC[C@@H](O)CN3CCc4ccccc4C3)ncn2)CC1
Cmax [16]: 1050 ng/mL
AUC(0-t) [17]: 3450 ng·h/mL
bioavailability [18]: 80.7%

SMILES: CC(=O)N1CCC(Oc2nccc(C(=O)NC[C@@H](O)[C@@H]3CC4CCCCC4CN3)c2Cl)CC1 (some centres not stated)
IC50 [13]: 0.026 µM

SMILES: CNCCN(C)Cc1c[nH]nc1-c1ccc(Oc2ccccc2)cc1
IC50 [15]: < 10 µM

SMILES: Cc1cc(N)c2cc(Nc3nc(-c4ccc5c(c4)OCO5)ncc3F)ccc2c1
IC50 [9]: 2.3 µM

SMILES: NC[C@@H](CC[C@H](N)C(=O)O)C[C@H]1O[C@@H](n2cnc3c(N)ncnc32)[C@H](O)[C@@H]1O
IC50 [21]: 0.013 µM

More lines, now with the values ahead:

IC50 [3]: < 50 µM
SMILES: CCn1c2ccccc2c2cc(CNCc3ccccn3)ccc21

IC50 (PRMT5/MEP50 complex): 0.0014 µM
SMILES: Nc1ncnc2c1ccn2[C@@H]1O[C@H]([C@H](O)c2ccc(Cl)c(F)c2)[C@@H](O)[C@H]1O

IC50 (PRMT5/MEP50 complex): 0.01 µM
SMILES: Nc1ncnc2c1ccn2[C@@H]1O[C@H]([C@H](O)c2ccc(Cl)cc2)[C@@H](O)[C@H]1O

IC50 [2]: 0.03 µM
IC50 [10]: 0.01 µM
IC50 [11]: 0.145 µM
IC50 [12]: 0.519 µM
SMILES: Cc1cn([C@@H]2O[C@H](CSCCNCc3cccnc3C(C)(C)C)[C@@H](O)[C@H]2O)c2ncnc(N)c12

IC50 [14]: 2.4 µM
SMILES: N=C(N)c1ccc(Nc2ncnc(Nc3ccc(C(=N)N)cc3)c2[N+](=O)[O-])cc1

IC50 [6]: 0.0028 µM
IC50 [2]: 0.00042 µM
SMILES: N=C(N)NCCC[C@H](N)C(=O)NCC(=O)N[C@@H](CCNC(=N)NCCCSC[C@H]1O[C@@H](n2cnc3c(N)ncnc32)[C@H](O)[C@@H]1O)C(N)=O

IC50 [19]: < 0.0025 µM
SMILES: Nc1ncnc2c1ncn2[C@@H]1O[C@H](CSCCCNCc2ccc(-c3ccccc3)cc2)[C@@H](O)[C@H]1O

IC50 [19]: < 0.0025 µM
IC50 [20]: 0.294 µM
SMILES: Nc1ncnc2c1ncn2[C@@H]1O[C@H](CSCCCCNCc2ccc(-c3ccc(Cl)cc3)cc2)[C@@H](O)[C@H]1O

IC50 [15]: < 10 µM
SMILES: C=CC(=O)NCc1ccc(-c2ccc3[nH]nc(CN(C)CCN)c3c2)cc1

IC50 [2]: 0.0225 µM
SMILES: Nc1ncnc2c1ncn2[C@@H]1O/C(=C\C(N)CC[C@H](N)C(=O)O)[C@@H](O)[C@H]1O (some centres not stated)

IC50 [6]: 0.09 µM
SMILES: CSCC[C@H](NC(=O)[C@@H](NC(=O)[C@H](CO)NC(=O)[C@H](Cc1ccccc1)NC(=O)[C@@H]1CCCN1C(=O)[C@@H]1CCCN1C(=O)[C@H](CCCNC(=N)NCCC[C@H]1O[C@@H](n2cnc3c(N)ncnc32)[C@H](O)[C@@H]1O)NC(=O)[C@@H]1CCCN1C(=O)[C@H](C)NC(=O)[C@H](C)NC(=O)[C@@H]1CCCN1C(C)=O)[C@@H](C)O)C(=O)O (Ac-PAAP[X1]PPFSTM-OH)

IC50 [6]: 1.75 µM
SMILES: Nc1ncnc2c1ncn2[C@@H]1O[C@H](C[C@@H](N)CC[C@H](N)C(=O)O)[C@@H](O)[C@H]1O [SINEFUNGIN]

Reference: ChEMBL document CHEMBL5512621, “Overview of the development of protein arginine methyltransferase modulators: Achievements and future directions” (Eur J Med Chem, 2024)
